# Test results taken from PubChem BioAssay AID1379 (National Center for Advancing Translational Sciences (NCATS), 2008).
# The campaign covered roughly 200,000 compounds. About 560 (0.28%) were called active. Inconclusive means that the source gave no clear call. Such entries were picked first, then a sample of the others. The call rests on the fitted dose curve; in most records, active means well fitted inhibition curve with a large enough effect; inconclusive means small, poorly fitted or top-dose-only effect; inactive means flat fitted curve, though single readings scatter. No potency is given beside an inconclusive call; the fits are too rough.
# Target: Luciferin 4-monooxygenase (Photuris pensylvanica) (UniProt Q27757)
# Assay: Counterscreen for Luciferase (Kinase-Glo TM) Inhibition; further: nearly all actives have a fitted effect of over 60% in size
# Conditions: ATP luminescence, 8 min; series mostly up to 38.3 µM; activity change, negative = inhibition: at the top concentration
# In short: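 Substrate mix (final 50 mM imidazole pH 7.2, 50 mM KCl, 7 mM MgCl2, 10 uM ATP, 0.01% Tween 20, 0.05% BSA) plus pin-tool compound, then Kinase-Glo detection mix; 8 min ambient, luminescence read.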
# On the % scale 0 is the no-effect control and ±100 the full control effect; potency means the concentration at half of the fitted maximal effect; tags describe the fitted curve by direction and shape.
Compound,Potency,"activity change, negative = inhibition"
Cc1cc(C=C2C(=O)c3ccccc3C2=O)c(C)n1-c1ccccc1,"inconclusive [inhibitor, single point]",–
Cn1cccc1-c1nc2ccc(NC(=O)c3ccc([N+](=O)[O-])cc3)cc2[nH]1,–,inactive: -1.42%
COc1cc(/C=N/NC(N)=O)cc([N+](=O)[O-])c1O,"inconclusive [inhibitor, single point]",–
CCNC(=S)N/N=C/c1ccc(C(=O)O)cc1,"inconclusive [inhibitor, partial curve]",–
O=C(Nc1ccc(-c2nc3ccccc3s2)c(O)c1)C1=COCCO1,–,inactive: -7.48%
Cc1sc(N/N=C/c2cccnc2)nc1-c1ccccc1,–,inactive: -9.53%
O=[N+]([O-])c1cccc(Cl)c1N1CCOCC1,–,inactive: 0.631%
Cn1cccc1C(=O)N1CCC[C@@]2(CCN(c3ccncc3)C2)C1,–,inactive: -2.67%
COCCNC(=O)C(c1ccc(C)cc1)N(C(=O)C(=O)NC1CCCC1)c1ccc2c(c1)OCCO2 (stereo not drawn),–,inactive: -1.38%
CSC(=NNC(=O)c1ccc(O)cc1)SC,"inconclusive [inhibitor, partial curve]",–
Cc1occc1C(=O)Nc1cc(C(C)(C)C)on1,active: 11.2 µM,–
CCNC(=S)N/N=C/c1sc(N2CCCCC2)nc1-c1cccs1,active: 11.2 µM,–
CC(=O)c1c(CC(=O)O)[nH]n(-c2nc3ccccc3s2)c1=O,active: 6.31 µM,–
Cc1csc(NC(=O)c2cc3c(s2)CCCCC3)n1,"inconclusive [inhibitor, single point]",–
CC(C)N=C1NN=C(c2cccs2)CS1,"inconclusive [inhibitor, single point]",–
O=C(N/N=C/c1ccccn1)c1cccs1,"inconclusive [inhibitor, single point]",–
Cc1cc2nc(-c3ccc(SCC(=O)N4CCN(C(=O)c5ccco5)CC4)nc3)[nH]c2cc1C,"inconclusive [inhibitor, partial curve]",–
Cc1cccc(-c2nc3cc(NC(=O)C4CCCO4)ccc3o2)c1 (stereo not drawn),"inconclusive [inhibitor, partial curve]",–
Cc1ccc(-c2nc3ccccc3[nH]2)cc1N,active: 6.31 µM,–
CN(C)c1ccc(C(=O)Nc2nc3c(s2)CCCC3)cc1,"inconclusive [inhibitor, partial curve]",–
COc1ccc(C(=O)O/N=C(\N)c2ccccc2)c(OC)c1,"inconclusive [inhibitor, single point]",–
COc1ccc2nc3c(cc2c1)Cc1ccccc1-3,active: 12.6 µM,–
CCN1C(=O)/C(=C\C=C2/C=CC=CN2CC)SC1=S,"inconclusive [inhibitor, partial curve]",–
O=C(O)c1ccc(N/N=C/c2cc3c(cc2[N+](=O)[O-])OCO3)cc1,"inconclusive [inhibitor, partial curve]",–
CCc1ccc(C(=O)Nc2nnn(CC)n2)cc1,"inconclusive [inhibitor, single point]",–
Cn1cccc1Cc1nnc(SCC(=O)Nc2nccs2)n1CCc1ccccc1,–,inactive: -0.652%

Compound,Potency,"activity change, negative = inhibition"
CCCCCC(O)CCc1n[nH]c(=S)n1-c1ccccc1 (stereo not drawn),–,inactive: 3.6%
Cc1ccc(C(=O)Nc2cnc3ccccc3c2)cc1,"inconclusive [inhibitor, partial curve]",–
O=c1oc(-c2ccco2)nc2sc3c(c12)CCCC3,"inconclusive [inhibitor, partial curve]",–
Fc1ccc(-c2nc3ccccc3[nH]2)cc1,"inconclusive [inhibitor, single point]",–
N/C(=N\N=C\c1ccc(O)cc1)c1nonc1N,"inconclusive [inhibitor, partial curve]",–
Cc1cccc(/C(N)=N/OC(=O)c2ccccc2Cl)c1,"inconclusive [inhibitor, partial curve]",–
Cc1cccc2[nH]c(-c3ccc(NC(=O)c4ccco4)cc3)nc12,"inconclusive [inhibitor, partial curve]",–
CCCOc1ccc(-c2nnc(-c3ccco3)o2)cc1,"inconclusive [inhibitor, partial curve]",–
Cc1ccc(CCc2nnc(SCC(=O)Nc3ccccc3Cl)n2-c2ccccc2)o1,–,inactive: 0.148%
Nc1ccc2oc(-c3ccccn3)nc2c1,"inconclusive [inhibitor, single point]",–
Cc1ccc(C(=O)NCC(=O)OCC(=O)c2ccc3c(c2)NC(=O)CO3)cc1,–,inactive: -0.772%
O=C(NCc1cn(-c2ccccc2)nc1-c1ccccc1)c1ccc([N+](=O)[O-])cc1,–,inactive: -0.905%
CCOC(=O)c1sc(NC(=O)c2cccs2)cc1C,"inconclusive [inhibitor, single point]",–
Brc1ccc(-c2cn3nc4c(nc3n2)CCCC4)cc1,"inconclusive [inhibitor, partial curve]",–
Cc1ccc(-n2cc(C(=O)c3ccccc3O)cn2)cc1,"inconclusive [inhibitor, partial curve]",–
C=CCNC(=O)c1ccccc1NC(=O)C1COc2ccccc2O1 (stereo not drawn),–,inactive: -2.07%
COC(=O)C1=C(C)NC(C)=C(C(=O)OCCNCc2ccccc2)C1c1cccc([N+](=O)[O-])c1 (stereo not drawn),–,inactive: -0.0334% [at 39.9 µM]
COc1cc(/C=N/NC(=O)c2cc(C34CC5CC(CC(C5)C3)C4)[nH]n2)ccc1O,–,inactive: -1.94%
CCCCCCCCCCCCCCC[C@@H](O)[C@H](CO)NC(C)=O,–,inactive: -1.07%
CCOc1ccc(NC(=O)Nc2ccccc2C(N)=O)cc1,active: 7.08 µM,–
Cc1ccc(NC(=O)COc2ccccc2[N+](=O)[O-])nc1,"inconclusive [inhibitor, single point]",–
NC(=O)N/N=C/c1cn(-c2ccccc2)nc1-c1ccccc1,"inconclusive [inhibitor, single point]",–
Cc1cc(NC(=O)c2ccc3c(c2)OCO3)ccc1NC(=O)c1ccco1,active: 11.2 µM,–
O=C(Nc1ccc(N2CCCC2=O)cc1)c1cccc(F)c1,active: 7.94 µM,–
NC(=O)c1ccccc1NC(=O)/C=C/c1ccccc1,"inconclusive [inhibitor, partial curve]",–
O=C(N/N=C1\C/C(=N\NC(=O)c2ccncc2)c2ccccc21)c1ccncc1,"inconclusive [inhibitor, single point]",–

Compound,Potency,"activity change, negative = inhibition"
Cc1cc(C)n(S(=O)(=O)c2ccc(C)c(C)c2C)n1,–,inactive: 0.206%
CSc1ccccc1-c1nnc(-c2ccccc2)o1,"inconclusive [inhibitor, single point]",–
Fc1ccccc1-c1nc2ccccc2[nH]1,"inconclusive [inhibitor, partial curve]",–
C=CCN1C(=O)/C(=C/c2ccc(OC(C)=O)c(OCC)c2[N+](=O)[O-])SC1=S,"inconclusive [inhibitor, partial curve]",–
NC(=O)c1ccccc1N/C=C/C(=O)c1cccs1,"inconclusive [inhibitor, partial curve]",–
Cc1csc(NC(=O)c2ccoc2C)n1,"inconclusive [inhibitor, partial curve]",–
CCOC(=O)c1ccc(N/C=C\C(=O)c2cccc(OC)c2)cc1,"inconclusive [inhibitor, single point]",–
CC1=CCC(COC(=O)Nc2ccccc2)CC1 (stereo not drawn),"inconclusive [inhibitor, partial curve]",–
Cc1ccccc1OCc1nc2ccccc2[nH]1,active: 12.6 µM,–
O=C(N/N=C/c1ccc2c(c1)OCO2)c1cc(-c2ccncc2)nc2ccccc12,–,inactive: -10.7%
COc1ccc(-c2nc(C)c(C(C)=O)n2O)cc1[N+](=O)[O-],"inconclusive [inhibitor, single point]",–
c1ccc(-c2cn3c(n2)-c2ccccc2C3)cc1,active: 7.08 µM,–
Cc1csc(NC(=O)c2cc(C)oc2C)n1,"inconclusive [inhibitor, partial curve]",–
CCc1c(C)sc(NC(=O)c2cc(C)on2)c1C#N,–,inactive: -1.17%
CN(C)c1ccc(/C=C/c2nc3ccccc3s2)cc1,active: 11.2 µM,–
Cc1ccc(C=Nc2ccccc2C(N)=O)o1,"inconclusive [inhibitor, single point]",–
COc1cc(/C=C2\SC(c3ccccc3)=NC2=O)cc(Cl)c1O,"inconclusive [inhibitor, partial curve]",–
N/C(=N\OC(=O)c1ccco1)c1ccccn1,active: 12.6 µM,–
COc1cc(/C=C(/C(=O)c2cccs2)c2nc3ccccc3[nH]2)cc(OC)c1O,"inconclusive [inhibitor, partial curve]",–
Cc1ccc2nc(-c3cc(N)cc(N)c3)oc2c1,"inconclusive [inhibitor, partial curve]",–
COc1ccc(N/N=C(C)/C(=N/O)C(=O)Nc2ccccc2)cc1,"inconclusive [inhibitor, single point]",–
O=C(NNc1nc(=O)c2cccnc2s1)c1ccccc1O,–,inactive: -1.34%
CC(=O)Nc1cccc(C(=O)N/N=C/c2ccccc2F)c1,"inconclusive [inhibitor, single point]",–
Cc1nc(-c2ccc(C(=O)Nc3ccc(F)cc3)cc2)cs1,"inconclusive [inhibitor, partial curve]",–
COC(=O)c1sccc1NC(=O)/C=C\c1ccc(Cl)cc1Cl,"inconclusive [inhibitor, partial curve]",–
COc1ccc(/C=N\NC(=O)C2=NNC(=O)C2C)cc1 (stereo not drawn),"inconclusive [inhibitor, partial curve]",–
